Reference: PubChem BioAssay AID651567 (National Center for Advancing Translational Sciences (NCATS), 2012)
About 10 (0.8%) of roughly 1,200 compounds were called active. Another 4% or so got no clear call; they are omitted. Calls follow the shape of the dose curve; as a rule, active = well fitted inhibition curve with a large enough effect; inconclusive = small, poorly fitted or top-dose-only effect; inactive = no such curve, though single readings can be large or run the other way. Some of the results follow.

experiment: qHTS Assay to Find Inhibitors of Chronic Active B-Cell Receptor Signaling: Hit Validation in OCI-Ly3 Assay; settings: OCI-Ly3 IkB-luciferase reporter, Chroma-Glo luminescence, 4 h; series mostly up to 46.1 µM; activity change, negative = inhibition: at the top concentration
Excerpt: Diffuse large B-cell lymphoma (DLBCL) is the most common category of non-Hodgkin lymphoma, with ~20,000 new cases per year in the United States. DLBCL should be regarded as a collection of different neoplasms. Microarray gene expression analysis has defined two principal types of DLBCL, named for their similarity to normal B cell stages or activation states: a germinal center B-cell (GCB) type, and an activated B-cell (ABC) type. In ABC-DLBCL, a constitutive high-level activity of the NF-kappaB family of transcription factors has been observed (1) and NF-kappaB target genes are more highly expressed in ABC primary tumors than in GCB tumors. Functional studies have shown a constitutive high-level activity of the IkappaB (inhibitor of kappa-B) kinase (IKK) complex. […] Further analysis of DLBCL primary tumors for NF-kappaB target gene expression imply that although CARD11 is required for constitutive IKK activity in all ABC-DLBCL lines, mutations in CARD11 may be the root cause of IKK activation only in lines or tumors with such mutations. In other words, CARD11 mutations may explain NF-kappaB activation in only 10% of ABC-DLBCL cases. […] This process has been termed 'chronic active BCR signaling' (CABS). The goal of this screen is to find small-molecule inhibitors of the CABS pathway found in ABC-DLBCL lines using a cell-based assay that measures IkappaBalpa stability, which has already been extensively validated in the OCI-Ly3 line (PubChem AID:445; REF: 4). […] Hits from the primary screen were tested in this selectivity secondary assay. NIH Molecular Libraries Probe Production Network [MLPCN] NIH Chemical Genomics Center [NCGC] MLPCN Grant: R03 DA031086 PI Name: Dr. R. Eric Davis
Cells were seeded in 1536-well plates at 5000 cells/3ul in IMDM medium containing 0.5% FBS, w/o phenol red, L-glutamine, 25 mM HEPES, 3 mg/ml sodium bicarbonate. After centrifugation for 1 min. at 1000 rpm, 23 nl of compounds or DMSO were delivered to each well using a pin tool. Then 1ul 80ng/ml doxycycline was dispensed into white solid 1536-well plates and the plates were incubated at 37C/5% C02 in a cell incubator for 4 hrs. Then 4 ul Chroma-Glo luminescent substrate mix (Promega) was added to each well. The plate was incubated at R.T. for 10-15 min. The plates were measured on a ViewLux plate reader for green luminescence (540/20 nm filter) and red luminescence (618/8 nm filter). The green and red luminescent signals were corrected for red and green luminescence filter overlap using previously determined filter calibration constants (determined using the procedure outlined in the Promega Technical Manual). The %Activity was determined from the ratio of corrected green/red luminescent values. Green luminescent and ratio %Activity was determined by normalizing to the difference in signal between basal cells (0% Activity) and cells incubated with 10 uM of the proteasome inhibitor MG-132 (100% Activity). Red luminescent %Activity was normalized to the difference between red luminesence in basal cells (0%Activity) and zero luminescence (-100% Activity). Concentration-response curves were fitted to the signals arising from the green luminescence (I-kappa-B-alpha-luciferase fusion; IkB-luc) and the red luminescence (unfused luciferase; luc) as well as the calculated ratio. The concentration-effect curves were then classified based on curve quality (r2), response magnitude and degree of measured activity. Compounds were then categorized based on their concentration-response curves for all three datasets (Ikb-luc, luc and ratio).
% is scaled to controls: 0 for no effect and ±100 for the full control effect.

Activity change, negative = inhibition, inactive:
COc1ccc(OC)c(S(=O)(=O)Nc2ccc(-c3ccc4nnc(C)n4n3)cc2)c1 -2.99%
O=C(/C=C/c1cccs1)c1cc(Cl)ccc1OC(=O)N1CCOCC1 -2.1%
COc1ccc(/C=C/C(=O)c2cc(Br)ccc2OC(=O)c2ccco2)cc1OC -26.8%
COCCn1c(-c2cccc([N+](=O)[O-])c2)nc2c1c(=O)[nH]c(=O)n2Cc1ccccc1 -0.277%
Cc1cccc(C)c1NS(=O)(=O)c1ccc(-c2cnc(C3CC3)o2)cc1 -5.58%
O=C(N/N=C/c1ccccc1)c1[nH]c2ccc(Br)cc2c1-c1ccccc1 -6.65%
COCCOC(=O)c1[nH]c2c(c1C)C(=O)CC(c1ccccc1)C2 (stereo not drawn) -0.738%
c1ccc(-c2cc(-c3nnc4n3N=C(c3ccc5ccccc5c3)CS4)[nH]n2)cc1 -4.31%
CCC(NC(=O)CCc1c(C)c2cc3c4c(oc3cc2oc1=O)CCCC4)C(=O)O (stereo not drawn) -0.21%
CCCC1=Nc2cc(C(=O)NCCCOC(C)C)ccc2Sc2ccccc21 -2.65%
O=c1cc(-c2cccc(F)c2)[nH]c2ccccc12 -3.48%
Oc1[nH]c(N=C2N=c3ccccc3=N2)c2ccccc12 -12.1%
COC(=O)C1=C(C)NC(C)=C(C(=O)OC)C1/C=C/c1ccccc1 -10.9%
COc1ccc(C(=O)Nc2ccc(-n3nncc3-c3ccc(OC)c(OC)c3)cc2)cc1 -7.03%
CCOc1ccc(N(CC(=O)Nc2ccccc2C)S(=O)(=O)c2c(C)noc2C)cc1 -2.55%
CC(/C=N/NC(=O)c1n[nH]c2c1CCC2)=C\c1ccccc1 0.202%
O=C(CNCc1ccccc1)Nc1ccc(Oc2ccccc2)cc1 -1.02%
Cc1ccc(S(=O)(=O)n2ccc(OC(=O)c3cccs3)n2)cc1 -2.54%
Cc1cc(C)cc(C(=O)N2CC(=O)Nc3ccccc32)c1 -1.15%
COc1ccc(NC(=S)N/N=C/c2ccc(F)cc2)cc1OC -2.79%
COc1ccc(-c2noc(CSc3nc(N)c(-c4ccccc4)c(=O)[nH]3)n2)cc1 -0.936%
C/C(=N\NC(=S)NC1CCCCC1)c1ccc(C)o1 -3.08%
Nc1ncnc2c1ncn2[C@@H]1O[C@H](CNCc2ccc(-c3cc(C(F)(F)F)ccc3Cl)o2)[C@@H](O)[C@H]1O -1%
S=c1[nH]nc(-c2ccco2)n1/N=C/C(Cl)=C/c1ccccc1 26.3%
CCCC(C)NC(=O)c1ccc(C2SCC(=O)N2Cc2ccco2)cc1 (stereo not drawn) -1.22%
COc1ccc(-c2c(C)c3ccc(O)cc3oc2=O)cc1 -0.672%
Cn1c(=O)n(C)c2cc(NS(=O)(=O)c3ccc(Br)s3)ccc21 -4.34%
CCC1=Nc2cc(C(=O)NCc3ccco3)ccc2Sc2ccc(C)cc21 -4.83%
S=C(NCc1ccc2[nH]c3c(c2c1)CCCC3)Nc1ccccc1 -16.7%
COc1cc2sc(-c3ccccc3OC)c(-c3ccc(OCCN4CCOCC4)cc3)c2cc1OC -2.64%
COc1cccc(N2CCN(C(=O)c3ccc(CS(=O)c4ccccc4Cl)o3)CC2)c1 (stereo not drawn) -1.72%
COc1cc(OC)c2c(-c3cccc(-c4ccc(NC(C)=O)cc4)c3)cc(=O)oc2c1 -2.94%
CC1CCN(C(=O)CCCOc2cc(=O)n(C)c3ccccc23)CC1 -5.58%
Cc1ccc(-c2ccc(/C=N/NC(N)=S)o2)cc1 0.782%
O=[N+]([O-])c1ccccc1S(=O)(=O)Nc1cccc2cccnc12 27.6%
Nc1nc(Cl)nc2c1ncn2[C@@H]1O[C@H](CO)[C@@H](O)[C@H]1O -0.82%
C(=N\Nc1nc2ccccc2s1)/c1ccccn1 16%
CCCCOc1ccc2c(C)cc(=O)oc2c1OCCCC -2.1%
COc1ccc(C2CC(c3ccncc3)=NN2c2ccc(S(N)(=O)=O)cc2)cc1 (stereo not drawn) -5.91%
CCC(=NCCc1c(C)[nH]c2ccc(C)cc12)C1=C(O)CC(c2ccccc2)CC1=O (stereo not drawn) -7.19%
O=C(N/N=C/C(Br)=C\c1ccccc1)c1ccc2nc[nH]c2c1 -11.1%
CCCn1nnc(NC(=S)NC(=O)c2ccc(-c3ccc(Br)cc3)o2)n1 -0.674%
COc1cc(C2C(C#N)=C(N)Oc3cc4c(cc32)OCO4)cc(OC)c1OC (stereo not drawn) -3.1%
COc1ccccc1NS(=O)(=O)c1cccc(C(=O)N/N=C/c2cn(-c3ccccc3)nc2-c2ccccc2)c1 0.349%
CC(=O)c1c(C)[nH]c(C(=O)OCC(=O)c2c[nH]c3ccccc23)c1C -5.35%
COc1ccc(CNc2nc(NCc3ccc(OC)cc3)c3ncn(C4CCCC4)c3n2)cc1 -2.03%
NC(=S)N/N=C\c1ccc(-c2cccc(Cl)c2Cl)o1 -0.203%
O=C(Cc1ccc(-n2c(=O)c3ccccc3n(Cc3ccccc3F)c2=O)cc1)NCC1CCCO1 (stereo not drawn) -0.1%
Cc1ccc(C(=O)c2cc([N+](=O)[O-])ccc2N2CCCCC2)cc1C -4.53%
Nc1ncnc2c1ncn2C1OC(COP(=O)(O)O)C(O)C1O (stereo not drawn) 0.196%
O=C(Oc1c(CN2CCOCC2)cc(Cl)c2cccnc12)c1ccc(F)cc1 -3.45%
CCCCOc1ccccc1C1CC(=O)NC2=C1C(=O)CCC2 (stereo not drawn) -0.837%
CC1=Nc2cc(C(=O)NC3CCCCC3)ccc2Sc2ccc(Cl)cc21 -3.9%
CCc1ccc(NC(=O)CSc2nc(=O)n(CCCN3CCOCC3)c3c2CCCC3)cc1 -0.51%
C/C(=N\NC(=O)c1c([N+](=O)[O-])c(C)nn1C)c1ccc(NC(=O)C2CCCC2)cc1 -0.445%
CC[C@]12c3[nH]c4cc(CCC(=O)N(C)C)ccc4c3CCN1C(=O)[C@@H](CC(=O)NCCCN(C)C)C[C@@H]2C(=O)N1CCN(C(=O)c2ccco2)CC1 -0.977%
Cc1noc(C)c1CSc1nc2[nH]ncc2c(=O)n1-c1ccccc1 -5.84%
CCc1cc2c(=O)[nH]c(-c3ccccn3)nc2s1 14.9%
CCn1c2ccccc2c2cc(NC(=O)c3ccccc3-c3ccccc3C(=O)O)ccc21 -0.464%
COc1cc2sc(-c3ccc(S(C)(=O)=O)cc3)c(C#CCO)c2cc1OC -0.578%
Oc1[nH]c2ccc(Br)cc2c1N=NC(=S)N1CCOCC1 -28.4%
Cc1ccc(NC(=O)/C=C/c2ccco2)nc1 21.6%
CC(/C=N/NC(=O)c1cc(-c2ccc(Cl)cc2)nc2ccccc12)=C\c1ccco1 -1.82%
Cc1ccc(CNC(=O)Cc2ccc(-n3c(=O)[nH]c4ccsc4c3=O)cc2)cc1 -1.57%
COc1ccc(C(=O)NN(C)c2nc(C(F)(F)F)nc3ccccc23)cc1 -3.83%
Cc1nn(C)cc1CNC(=O)COc1ccc(Cl)cc1Cl 0.375%
Cc1nn(Cc2ccccc2)c2c1C(c1ccccc1)C(C#N)=C(N)O2 (stereo not drawn) -1.53%
C=CCn1c(SC2CCOC2=O)nc2sc(C)c(C)c2c1=O (stereo not drawn) -0.318%
Nc1nc(N)c(N=O)c(OCC2CCCCC2)n1 -0.413%
CC(C)(C)NNC(=S)Nc1cccc(C(F)(F)F)c1 -0.0838%
CC(=O)Nc1ccc(NS(=O)(=O)c2cc(-c3n[nH]c(=O)c4ccccc34)ccc2C)cc1 -2.79%
N#CC1=C(N)OC2=C(CCc3ccccc32)C1c1ccccc1 (stereo not drawn) -6.13%
Cc1c(CCC(=O)N[C@@H](CCCNC(N)=O)C(=O)O)c(=O)oc2cc3oc4c(c3cc12)CCCC4 -0.014%
CC1=NN(C(N)=S)C(=O)C1N=Nc1ccccc1 (stereo not drawn) -0.825%
COc1ccc(S(=O)(=O)N2c3ccccc3OCC2C)cc1 (stereo not drawn) -6.88%
O=C1N[C@H]2CC=C[C@H]2Nc2ccccc21 -1.64%
CCOC(=O)C1CCN(S(=O)(=O)c2c(Cl)ccc3nonc23)CC1 1.28%
Cc1c(CCC(=O)NCCC(=O)O)c(=O)oc2c(C)c3oc4c(c3cc12)CCCC4 0.734%
COc1ccc(NC(=O)C(=O)NCC2CCCN2S(=O)(=O)c2ccc(C)cc2)cc1 (stereo not drawn) -2.59%
COc1ccc(C(C)=O)cc1COC(=O)c1ccc(N)c([N+](=O)[O-])c1 -0.216%
CCOC(=O)c1c(C=O)c2sc(C)cc2n1C -0.818%
Cc1ccc2c(c1)C(=O)C(=O)N2CC1COc2ccccc2O1 (stereo not drawn) -5.65%
COc1ccccc1N1CCN(C(=O)c2cc(=O)c3cc(C)cc(C)c3o2)CC1 -8.65%
COc1ccc(C(=O)/C=C/c2ccc(O)cc2)c2c1CC(O)C(C)(C)O2 (stereo not drawn) -0.966%
O=c1cc(-c2ccccc2)[nH]c2ccc(F)cc12 -2.66%
NC(=S)Nc1nc2ccccc2s1 -5.84%
CC(C)CCOc1ccc(CO[C@@H]2[C@H]3OC(C)(C)O[C@H]3O[C@@H]2C(O)CO)cc1 (stereo partly drawn) -1.09%
COc1cc(OC)c2c(-c3cccc(-c4ccc(N(C)C)cc4)c3)cc(=O)oc2c1 -8.24%
COc1ccc(S(=O)(=O)NCc2ccccn2)cc1NC(=O)c1ccccc1C -0.0668%
Cc1ccccc1C(=O)Oc1ccc2ccc(O)cc2c1 -2.12%
COc1ccc(C(=O)N2CCc3cc(OC)c(OC)cc3C2c2ccc(OC)c(OC)c2)cc1 (stereo not drawn) -0.486%
CC(/C=C/c1ccccc1)=N\NC(=S)NC(C)C -1.53%
N=C1SCC(=O)N1c1ncc(Cc2ccccc2Cl)s1 33.8%
O=C(COc1ccccc1-c1ccccc1)N/N=C/c1cccc2ccccc12 -3.27%
O=C(NN=C1CCCC1)c1n[nH]c2c1CCCC2 -13%
Cc1cc(NC(=O)CSc2nc3ccccc3c(=O)n2C2CCCC2)no1 -3.58%
Cc1ccc(C2=NN(C(=O)CSc3nc(N)cc(N)n3)C(c3ccco3)C2)cc1 (stereo not drawn) 0.0305%
OC[C@H]1O[C@@H](n2cnc3c(NC4CCCC4)ncnc32)[C@H](O)[C@@H]1O -1.42%
O=C(N/N=C/c1ccc(Cl)cc1)c1n[nH]c2c1CCCC2 -2.19%
COc1cc2c(cc1OC)-c1cc(Nc3ccc(N(C)C)cc3)nc(=O)n1CC2 -1.8%
Oc1ccccc1N=Nc1ccccc1O -0.679%
COC(=O)Nc1nc2ccc(Sc3ccccc3)cc2[nH]1 1.24%
C=C1C(O)[C@@H]2O[C@]3(CC[C@H](/C=C/C(C)[C@@H]4CC(C)=CC5(O[C@H](C[C@@](C)(O)CO)CCC5O)O4)O3)CC[C@H]2O[C@@H]1C(O)CC(C)[C@H]1OC2(CCCCO2)CCC1C (stereo partly drawn) -6.02%
